Changes are numbered by the printed parent chain. Recombinant human monoclonal antibodies (heavy:light variable regions). ELISA EC50 on the named antigen, from 10 µg/ml down; IC50 / IC90 against spike pseudovirus on 293T-ACE2 cells, 48 h; lower = stronger. Calls: IC50 above 1,000 ng/ml = non-neutralizing; EC50 above 1,000 ng/ml = non-binder. The source prints 1000 for neutralization that was not reached; it is given as >1000 ng/ml. Only binders of the Wuhan-Hu-1 domain have neutralization values.

Sequences and labels used below:
B1: B2102 (protein)
chain 1: QVQLVQSGAEMKKPGSSVKVSCEASGNTFSTYPISWVRQAPGQGLEWMGRIIPMLGIANYAQKFQDRVTITVDKSTSTAYMELTSLRSEDTAVYYCARTPSRPDSNTWYFHQWGQGTLVTVSS
chain 2: QSVLTQSPSVSGAPGQRVTISCTGSNSNIGAGYDVHWYQQLPGTAPKLLIYANNNRPSGVPDRFSGSKSDTSASLAITGLQAEDEADYYCQSYDSSLSDSVFGGGTKLTVL
B2: B614 (protein)
chain 1: EVQLVESGGGLIQPGGSLRLSCAASGIIVSSNYMNWVRQAPGKGLEWLSVFYPGGTTQYADSVKGRFTISRDNSKNTLYLQMNSLRAEDTAVYYCARDRWEGAFDIWGQGTMVTVSS
chain 2: DIQLTQSPSFLSASVGDRVTITCRASQGISNYLAWYQQKPGKAPKLLIYAASTLQSGVPSRFSGSASGTEFTLTISSLQPEDFATYYCQQLNSYPRLTFGGGTKVEIK
B3: B601 (protein)
chain 1: QVQLVQSGAEVKKPGASVKVSCKTSGYTLIDYYVHWVRQAPGQGLEWMGRINPNSGGTNYAQKFQGRVTMTGGTSITTAYMELSGLRSDDTAVYYCATEHYDIVAGHSPGGKYFGMDVWGQGTTVTVSS
chain 2: QSALTQPASVSGSPGQSITISCTGSSSDVGSYNYVSWYQQHPGRAPKLIISEVTNRPSGVSNRFSGSKSGNTASLTISGLQAEDEADYYCSSYTSSSPLVLFGGGTKLT
B4: B602 (protein)
chain 1: B3 chain 1
chain 2: QSALTQPASVSGSPGQSITISCTGSSSDVGSYNYVSWYQQHPGRAPKLIISEVTNRPSGVSNRFSGSKSGNTASLTISGLQAEDEADYYCSSYTSSSPLVLFGGGTKLTVL
B5: B631 (protein)
chain 1: EVQLVESGGGLVQPGRSLRLSCAASGFTFDDYAMHWVRQAPGKGLEWVSGISWNSGRTAYADSVKGRFTISRDNAKNSLYLQMNSLRAEDTALYYCAKASCGGDCYSLLLSPDGFDIWGQGTMVTVSS
chain 2: QSVLTQPPSVSGAPGQRVTISCTGSSSNIGAGYDVHWYQQLPGTAPKLLIYDNNNRPSGVPDRFSGSKSGTSASLAITGLQAEDEADYYCQSYDSSLGGLVLFGGGTKLTV
B6: B623 (protein)
chain 1: QVQLVESGGGVVQPGRSLRLSCAASGFTFSSHAMHWVRQAPGKGLEWVAVILDDGSNKYYADSVKGRFTISRDNSRNTLYLQMNSLRVEDTAVYYCARDYHVDRVMVTWFDPWGQGTLVTVSS
chain 2: DIQMTQSPSSLSASVGDRVNIHCRASQSIGTYLNWYQQKPGKAPKLLIYVVSNLQSGVPSRFSGSGSGTDFTLTISSLQPEDFATYYCQQSYSTPPWTFGQGTKVEIK
B7: B605 (protein)
chain 1: QVQLQESGPRLVKPSQTLSLTCSVSGGSFSSGGYYWSWIRQHPGKGLEWIGYIYYTGSTYYNPSLKSRVSISVDTSKNELSLGLSSVTAADTAVYYCARGPYTTRAFDYWGQGTLVTVSS
chain 2: QSALTQPPSASGSPGQSVTISCTGTSSDVGGYNYVSWYQQHPGKAPKLIIYEVSKRPSGVPDRFSGSKSGNTASLTVSGLQAEDEADYYCSSYGGSNNEVFGGGTKLTVL
B8: B606 (protein)
chain 1: B7 chain 1 with R10G, F29V, I50V, V69G, S70T, E79Q, L80F, G83K
chain 2: B7 chain 2 with G31D, I49M, S54N, G94A, N98T
B9: B609 (protein)
chain 1: QVQLVQSGAAVRKPGSSVKVSCKASGGLFSSFAISWVRQAPGQGLQYMGGIIPMFGIPNYAQKFQGRVTITADESTSTAYMELSSLTSEDTAVYYCARAPVATRPPDYWGQGTLVIVSS
chain 2: EIVMTQSPATLSVSPGERATLSCRASQSVSNNLAWYQQKPGQAPRLLIYGASTRATGIPARFSGSGSGTEFTLTISSLQSEDFAVYFCQQYNDWPPLTFGGGTKVEIK
B10: B628 (protein)
chain 1: EVQLVESGGGLVQPGRSLRLSCAASGFTFDDYAMHWVRQYPGKGLEWVSGASWNSGTIGYGDSVKGRFIISRDNAKNSVYLQMNSLRPEDTALYYCAKSLRRDAYNYDDCAFDIWGQGTMVTVSS
chain 2: SYVLTQPPSVSVAPGQTARITCGGNNIGSKSVHWYQQKPGQAPVLVVYDDSDRPSGIPERFSGSNSANTATLTISRVEAGDEADYYCQVWHSSSEHQVFGTGTKVTVL
B11: B626 (protein)
chain 1: EVQLVESGGDLVQPGGSLRLSCAASGFTFNKYYMNWVRQAPGKGLEWVANIKQDGSEKYYVGSVKGRFTISRDNAKNSLYLQMSSLRAEDTAVYYCASGEWLRGPFDYWGQGTLVTVSS
chain 2: NFMLTQPHSVSESPGKTVTISCTGSSGSIASNYVQWYQQRPGSAPTTVIYEDNQRPSGVPDRFSGSIDSSSNSASLTISGLKTEDEADYYCQSYDSTIFYVFGTGTKVTVL
B12: B610 (protein)
chain 1: EVQLVESGGGLIQPGGSLRLSCAASGFPISSNYMNWVRQAPGKGLEWVSIIYSGGTTYYVDSVKGRFTISRDDSKNTLYLQMNSLRAEDTAVYYCARDLQNYGMDVWGQGTTVTVSS
chain 2: DIQLTQSPSFLSASVGDRVTITCRASQGISNYLVWYQQKPGKAPKLLIYAASTLQSGVPSRFSGSGSGTEFTLTISSLQPEDFATYYCQQVNSYPLFGPGTKVDI
B13: B612 (protein)
chain 1: B12 chain 1 with F27V, P28I, I29V, N35T, I50V, T56S, V60A, D73N, Q100N, N101Y
chain 2: DIQLTQSPSFLSASVGDRVTITCRASQGISSSLAWYQQKPGKAPKLLIYAASTLQSGVPSRFSGSGSGTEFTLTISSLQPEDFATYYCQQFNSYPHFGQGTKLEIK
B14: B624 (protein)
chain 1: QVQLVQSGAEVKKPGASVKVSCKASGYTFTSYYMHWVRQAPGQGLEWMGIINPSGGSTSYAQKFQGRVTMTRDTSTSTVYMELSSLRSEDTAVYYCASSPLFNWGQLYYFDYWGQGTLVTVSS
chain 2: QSVLTQPPSVSGAPGQRVTISCTGSSSNIGAGYDVHWYQQLPGTAPKLLIYGNSNRPSGVPDRFSGSKSGTSASLAITGLQAEDEADYYCQSYDSSLSDNWVFGGGTKLTVL

The target in one assay is SARS-CoV-2 Wuhan-Hu-1 spike pseudovirus. Kind of assay: pseudovirus neutralization IC50; higher = weaker neutralization. On the procedure: (§1)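 Single-round luciferase reporter pseudovirus mixed with antibody dilutions and put on 293T-ACE2 cells for 48 h; signal relative to no-antibody wells, four-parameter fit.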
As to B1, the “pseudovirus neutralization IC50” value was found to be 0.116 mg/L.
Still for that read-out and setting: with B2 the figure was 0.00756 mg/L; with B3, 0.00514 mg/L; with B4, 0.00525 mg/L.
On to B5, for which the “pseudovirus neutralization IC50” value was more than 1 mg/L.
As to B6, the “pseudovirus neutralization IC50” value was more than 1 mg/L.
Turning to B7, the “pseudovirus neutralization IC50” value came out at 0.00191 mg/L.
Take B8: the “pseudovirus neutralization IC50” value turned out to be 0.00781 mg/L.
Still for that read-out and setting: the result for B9 reads 0.00135 mg/L; that for B10, 0.037 mg/L; that for B11, 0.086 mg/L.
Same read-out and setting: with B12 the figure was 0.00863 mg/L; with B13, 0.0081 mg/L; with B14, more than 1 mg/L.

For the next assay the target is unchanged. Nature of the assay: pseudovirus neutralization IC90; higher = weaker neutralization. On the procedure:
as §1
Take B1: the “pseudovirus neutralization IC90” value is more than 1 mg/L.
Same read-out and setting: the result for B2 reads 0.0308 mg/L.
Turning to B3, the “pseudovirus neutralization IC90” value was found to be 0.0237 mg/L.
Same read-out and setting: with B4 the figure was 0.0215 mg/L; with B5, more than 1 mg/L; with B6, more than 1 mg/L.
For the molecule B7, the “pseudovirus neutralization IC90” value worked out at 0.0119 mg/L.
Still for that read-out and setting: the result for B8 reads 0.0742 mg/L; that for B9, 0.00422 mg/L; that for B10, 0.52 mg/L.
Still for that read-out and setting: the result for B11 reads more than 1 mg/L; that for B12, 0.0372 mg/L; that for B13, 0.0411 mg/L.
On the same count and under the same terms, the result for B14 reads more than 1 mg/L.

A further assay has as its target SARS-CoV-2 Delta (B.1.617.2) spike RBD. Nature of the assay: ELISA binding EC50; higher = weaker binding; ELISA of recombinant human antibody on coated antigen, from 10 µg/ml in fourfold dilutions; four-parameter fit. (In an ELISA, binding on a coated surface is turned into a signal by an enzyme label.)
On to B1, for which the “ELISA binding EC50” value is 0.0428 mg/L.
The same measure, in the same setting: the result for B2 reads 0.00463 mg/L; that for B3, 0.00383 mg/L.
Same read-out and setting: with B4 the figure was 0.00348 mg/L.
As for B5, the “ELISA binding EC50” value amounted to 0.192 mg/L.
Take B6: the “ELISA binding EC50” value turned out to be 0.0163 mg/L.
Still for that read-out and setting: with B7 the figure was 0.00256 mg/L; with B8, 0.0099 mg/L; with B9, 0.024 mg/L.
Same read-out and setting: with B10 the figure was 0.0741 mg/L; with B11, 0.00486 mg/L.
Still for that read-out and setting: the result for B12 reads 0.0125 mg/L; that for B13, 0.00545 mg/L.
On to B14, for which the “ELISA binding EC50” value was 0.0505 mg/L.

A further assay addresses SARS-CoV-2 Omicron BA.1 spike protein. The description is as above.
B1: the “ELISA binding EC50” value was 0.0205 mg/L.
B2: the “ELISA binding EC50” value was more than 1 mg/L.
The same measure, in the same setting: the result for B3 reads more than 1 mg/L.
Still for that read-out and setting: the result for B4 reads more than 1 mg/L; that for B5, 0.985 mg/L; that for B6, 0.0417 mg/L.
As for B7, the “ELISA binding EC50” value was more than 1 mg/L.
Turning to B8, the “ELISA binding EC50” value is more than 1 mg/L.
The same measure, in the same setting: the result for B9 reads more than 1 mg/L.
As to B10, the “ELISA binding EC50” value stood at 0.0187 mg/L.
For the molecule B11, the “ELISA binding EC50” value was found to be 0.223 mg/L.
With B12, the “ELISA binding EC50” value is more than 1 mg/L.
Still for that read-out and setting: with B13 the figure was more than 1 mg/L.
The same measure, in the same setting: the result for B14 reads 0.0246 mg/L.

The target of another assay is SARS-CoV-2 Wuhan-Hu-1 spike receptor-binding domain. Described as above.
For the molecule B1, the “ELISA binding EC50” value came to 0.00728 mg/L.
Take B2: the “ELISA binding EC50” value was 0.00176 mg/L.
On to B3, for which the “ELISA binding EC50” value worked out at 0.00266 mg/L.
On to B4, for which the “ELISA binding EC50” value was found to be 0.0023 mg/L.
Same read-out and setting: the result for B5 reads 0.00685 mg/L; that for B6, 0.00194 mg/L.
As for B7, the “ELISA binding EC50” value was 0.00196 mg/L.
B8: the “ELISA binding EC50” value was determined as 0.00319 mg/L.
Same read-out and setting: with B9 the figure was 0.00303 mg/L.
Turning to B10, the “ELISA binding EC50” value turned out to be 0.000775 mg/L.
On the same count and under the same terms, the result for B11 reads 0.00158 mg/L; that for B12, 0.00258 mg/L.
Still for that read-out and setting: with B13 the figure was 0.00317 mg/L; with B14, 0.00131 mg/L.

The values above are taken from the supplement of paper PMC9513381.
